Measurements: PMC6713926

Target: T1, WT FP, recombinant oligomeric properdin (human), P27918
T1 chain: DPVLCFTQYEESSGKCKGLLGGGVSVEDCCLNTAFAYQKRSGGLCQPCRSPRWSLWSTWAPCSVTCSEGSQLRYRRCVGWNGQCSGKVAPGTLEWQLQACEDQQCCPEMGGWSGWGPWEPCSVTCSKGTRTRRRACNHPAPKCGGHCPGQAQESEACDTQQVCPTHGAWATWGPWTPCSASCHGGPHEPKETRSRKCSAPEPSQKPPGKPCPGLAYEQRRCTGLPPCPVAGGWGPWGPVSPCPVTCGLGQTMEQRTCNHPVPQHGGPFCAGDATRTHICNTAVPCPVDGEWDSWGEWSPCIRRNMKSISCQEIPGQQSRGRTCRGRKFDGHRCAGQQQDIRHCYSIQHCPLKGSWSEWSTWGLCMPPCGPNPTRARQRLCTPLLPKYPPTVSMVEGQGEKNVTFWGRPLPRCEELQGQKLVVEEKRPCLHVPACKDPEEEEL
Test: SEC; oligomer content of purified FP preparations on a 24 mL Superdex200 increase
Details: remark: other sources report otherwise

stoichiometry N: 2 and 3
B1: WT FP, recombinant oligomeric properdin, P27918 28-469 (natural protein)
chain: DPVLCFTQYEESSGKCKGLLGGGVSVEDCCLNTAFAYQKRSGGLCQPCRSPRWSLWSTWAPCSVTCSEGSQLRYRRCVGWNGQCSGKVAPGTLEWQLQACEDQQCCPEMGGWSGWGPWEPCSVTCSKGTRTRRRACNHPAPKCGGHCPGQAQESEACDTQQVCPTHGAWATWGPWTPCSASCHGGPHEPKETRSRKCSAPEPSQKPPGKPCPGLAYEQRRCTGLPPCPVAGGWGPWGPVSPCPVTCGLGQTMEQRTCNHPVPQHGGPFCAGDATRTHICNTAVPCPVDGEWDSWGEWSPCIRRNMKSISCQEIPGQQSRGRTCRGRKFDGHRCAGQQQDIRHCYSIQHCPLKGSWSEWSTWGLCMPPCGPNPTRARQRLCTPLLPKYPPTVSMVEGQGEKNVTFWGRPLPRCEELQGQKLVVEEKRPCLHVPACKDPEEEEL

Several values for one entry are separate records, joined by “and”; a condition that tells them apart may be missing. Equal values may be shown once.
